# Results: paper PMC9911399, “Two distinct binding modes provide the RNA-binding protein RbFox with extraordinary sequence specificity”
# Numbering of substitutions follows the chain as printed; changes in the protein carry UniProt numbers. This is one part of the list.
# B1: AGAAGGU (DNA:RNA)
# RNA: GGGAGACCGGAAUUCAGAUUGUCCAGAAGGUUUAAAUCCCGUCGUAGCCACCA
# DNA 1: CAATCTGAATTCCGGTCTCCC
# DNA 2: TGGTGGCTACGACGGGATT
# B2: GCGUACC (DNA:RNA)
# RNA: GGGAGACCGGAAUUCAGAUUGUCCGCGUACCUUAAAUCCCGUCGUAGCCACCA
# DNA 1: CAATCTGAATTCCGGTCTCCC
# DNA 2: TGGTGGCTACGACGGGATT
# B3: CAAUUAC (DNA:RNA)
# RNA: B2 RNA with G25C, C26A, G27A, A29U, C30A
# DNA 1: CAATCTGAATTCCGGTCTCCC
# DNA 2: TGGTGGCTACGACGGGATT
# B4: UCCCGCU (DNA:RNA)
# RNA: B1 RNA with A25U, G26C, A27C, A28C, G30C
# DNA 1: CAATCTGAATTCCGGTCTCCC
# DNA 2: TGGTGGCTACGACGGGATT
# B5: UCAGUGU (DNA:RNA)
# RNA: B1 RNA with A25U, G26C, A28G, G29U
# DNA 1: CAATCTGAATTCCGGTCTCCC
# DNA 2: TGGTGGCTACGACGGGATT
# B6: CUCGAUC (DNA:RNA)
# RNA: B2 RNA with G25C, C26U, G27C, U28G, C30U
# DNA 1: CAATCTGAATTCCGGTCTCCC
# DNA 2: TGGTGGCTACGACGGGATT
# B7: CGCAGCA (DNA:RNA)
# RNA: B1 RNA with A25C, A27C, G30C, U31A
# DNA 1: CAATCTGAATTCCGGTCTCCC
# DNA 2: TGGTGGCTACGACGGGATT
# B8: UGCUCUC (DNA:RNA)
# RNA: B2 RNA with G25U, C26G, G27C, A29C, C30U
# DNA 1: CAATCTGAATTCCGGTCTCCC
# DNA 2: TGGTGGCTACGACGGGATT
# B9: GCCUUUC (DNA:RNA)
# RNA: B2 RNA with G27C, A29U, C30U
# DNA 1: CAATCTGAATTCCGGTCTCCC
# DNA 2: TGGTGGCTACGACGGGATT
# B10: UGCGCCC (DNA:RNA)
# RNA: B2 RNA with G25U, C26G, G27C, U28G, A29C
# DNA 1: CAATCTGAATTCCGGTCTCCC
# DNA 2: TGGTGGCTACGACGGGATT
# B11: CACGUCA (DNA:RNA)
# RNA: B2 RNA with G25C, C26A, G27C, U28G, A29U, C31A
# DNA 1: CAATCTGAATTCCGGTCTCCC
# DNA 2: TGGTGGCTACGACGGGATT
# B12: CAUUGUG (DNA:RNA)
# RNA: B1 RNA with A25C, G26A, A27U, A28U, G30U, U31G
# DNA 1: CAATCTGAATTCCGGTCTCCC
# DNA 2: TGGTGGCTACGACGGGATT
# B13: GGAACAG (DNA:RNA)
# RNA: B1 RNA with A25G, G29C, G30A, U31G
# DNA 1: CAATCTGAATTCCGGTCTCCC
# DNA 2: TGGTGGCTACGACGGGATT
# B14: CGGACGU (DNA:RNA)
# RNA: B1 RNA with A25C, A27G, G29C
# DNA 1: CAATCTGAATTCCGGTCTCCC
# DNA 2: TGGTGGCTACGACGGGATT
# B15: AGAGUUC (DNA:RNA)
# RNA: B1 RNA with A28G, G29U, G30U, U31C
# DNA 1: CAATCTGAATTCCGGTCTCCC
# DNA 2: TGGTGGCTACGACGGGATT
# B16: CAAACAC (DNA:RNA)
# RNA: B1 RNA with A25C, G26A, G29C, G30A, U31C
# DNA 1: CAATCTGAATTCCGGTCTCCC
# DNA 2: TGGTGGCTACGACGGGATT
# B17: UAUUCCA (DNA:RNA)
# RNA: B2 RNA with G25U, C26A, G27U, A29C, C31A
# DNA 1: CAATCTGAATTCCGGTCTCCC
# DNA 2: TGGTGGCTACGACGGGATT
# B18: GCGCGUA (DNA:RNA)
# RNA: B2 RNA with U28C, A29G, C30U, C31A
# DNA 1: CAATCTGAATTCCGGTCTCCC
# DNA 2: TGGTGGCTACGACGGGATT
# B19: CCCUAGU (DNA:RNA)
# RNA: B2 RNA with G25C, G27C, C30G, C31U
# DNA 1: CAATCTGAATTCCGGTCTCCC
# DNA 2: TGGTGGCTACGACGGGATT
# B20: GCCCAUA (DNA:RNA)
# RNA: B2 RNA with G27C, U28C, C30U, C31A
# DNA 1: CAATCTGAATTCCGGTCTCCC
# DNA 2: TGGTGGCTACGACGGGATT
# Target: T1, RBFOX1 RRM RbFoxmut (Fox-RRM*) (Homo sapiens, UniProt Q9NWB1 109-208, R118D;E147R;N151S;E152T)
# T1 sequence: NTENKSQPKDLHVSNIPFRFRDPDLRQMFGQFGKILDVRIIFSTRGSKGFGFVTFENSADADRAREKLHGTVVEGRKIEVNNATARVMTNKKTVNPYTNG
# Assay: EMSA; HiTS-Eq, 1 nM pool, 10 min; buffer printed only for the single-RNA assays: 10 mM Tris pH 7.5, 150 mM NaCl, 3.4 mM EDTA, 0.001% NP-40, 30 C
# Settings: tags: His6 N-terminal (pET28a); label: 5' 32P
# How it was run: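 Purified RbFox RRM (wild type or mutant) was equilibrated for 10 min in 50 µL with 1 nM of a 5′-radiolabelled pool of RNA with 7 randomized nucleotides, its flanks annealed to DNA oligonucleotides, across increasing protein concentrations. Free RNA was separated by 8% native PAGE, excised, reverse-transcribed, PCR-barcoded and sequenced on an Illumina HiSeq 2500. Relative association constants came from read-count changes of each variant against the control reaction, normalised to the cognate motif.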
row,Binder,binding signal
1,B1,0.0852 KA relative to UGCAUGU
2,B2,0.0833 KA relative to UGCAUGU
3,B3,0.114 KA relative to UGCAUGU
4,B4,0.0857 KA relative to UGCAUGU
5,B5,0.172 KA relative to UGCAUGU
6,B6,0.0429 KA relative to UGCAUGU
7,B7,0.158 KA relative to UGCAUGU
8,B8,0.0594 KA relative to UGCAUGU
9,B9,0.0348 KA relative to UGCAUGU
10,B10,0.0827 KA relative to UGCAUGU
11,B11,0.124 KA relative to UGCAUGU
12,B12,0.166 KA relative to UGCAUGU
13,B13,0.096 KA relative to UGCAUGU
14,B14,0.104 KA relative to UGCAUGU
15,B15,0.0781 KA relative to UGCAUGU
16,B16,0.0768 KA relative to UGCAUGU
17,B17,0.0725 KA relative to UGCAUGU
18,B18,0.126 KA relative to UGCAUGU
19,B19,0.0914 KA relative to UGCAUGU
20,B20,0.0938 KA relative to UGCAUGU
